# From patent publication US20060287252A1, “Substances k01-0509 and process for producing the same” (priority 2004, published 2006)
# Tested on: type III secretion system
# Conditions: sheep red blood cells, EPEC cesT defective strain, 37° C., 90-150 minutes, hemoglobin at 550 nm
# Description: Test was performed according to method for detecting substances inhibiting the bacterial type III secretion system and function of secretory proteins thereof which was established by Omura et al. (WO 02/057760A1 and corresponding U.S. Pat. No. 6,586,200). One loopful enteropathogenic E. coli cesT defective strain (WO 02/057760A1) was inoculated in LB liquid medium (EB media 2.5%, Funakoshi Co. Ltd., Japan) (5 ml) and cultured at 37° C. for 12 hours without shaking. […]
# Erythrocytes was washed three times by centrifugation of the erythrocytes suspension, which was prepared by adding physiological saline (40 ml) to the sheep red blood cells (8 ml) (obtainable from Nippon Biological Materials Center, Japan), at 4° C. at 2500 rpm for 5 minutes. Weight of the erythrocyte pellets was measured. […] The thus prepared E. coli suspension and erythrocyte suspension were mixed in equal quantities. […] Eluted hemoglobin was measured at 550 nm by using automatic microplate reader (Bio-Instruments Inc., U.S.A.). The hemolytic inhibitory activity is calculated by the following equation. […]
row,Structure (SMILES),drug concentration causing 50 % hemolytic inhibitory activity (IC50) [µg/mL]
1,CC(NC(=O)C1NC(C)C(=O)NC1CCC(O)C(O)CC1CNC(=N)N1C(N)=O)C(=O)NC(C(=O)O)C(C)C (centres unmarked) [K01-0509-A1 substance],4.2
2,CC(NC(=O)C1NC(C)C(=O)NC1CCC(O)C(O)CC1CNC(=N)N1C(N)=O)C(=O)NC(C(=O)O)C(C)C (centres unmarked) [K01-0509-A2 substance],3.2
